Data set [1] in a line: SEC-MALS (Sepax Zenix C-150) peak distribution. It counts as physicochemical. As for the experimental part: A SEC-MALS assay was performed to determine the primary state (main peak) and its molecular weight. […] The GLP-2 peptibody O (albumin fusion) eluted at a molecular weight indicative of a monomer.
(§1) Stability analysis was then performed using SEC-MALS and NanoDSF. For SEC-MALS, a Sepax Zenix C-150 column was used. The mobile phase buffer was 1× PBS with a final concentration of 400 mM NaCl. The flow rate was 0.8 mL per minute. 20 micrograms of total protein was injected. For NanoDSF, 10 microliters of sample was used, without normalization of the samples.
as §1
In general terms: Size exclusion chromatography separates by hydrodynamic size, large species first.

Data set [2] is described as follows: NanoDSF melting temperature / thermal stability. It counts as physicochemical. Particulars: for NanoDSF melting temperature 1: first transition; for NanoDSF melting temperature 2: second transition. As for the experimental part:
Each of the GLP-2 peptibodies was tested by determining melting temperature with nanodifferential scanning fluorimetry (NanoDSF). NanoDSF is a measurement of protein stability over a range of temperatures, with a temperature ramp employed. The stability of tryptophan is measured by fluorescence, as reflected in a ratio of fluorescence at 350 nm to fluorescence at 330 nm. From the assay, one or more melting temperatures are determined. Because a protein in a certain state is understood to have a melting temperature, the number of melting temperatures observed reflects the number of different states.
as §1, §1

Data set [3] in a line: Rat pharmacokinetics, subcutaneous dosing. It counts as in vivo, Sprague-Dawley rats. Particulars: single dose 1 mg/ml. As for the experimental part:
(§2) In the rat, four pharmacokinetic parameters were measured for Gattex® (a GLP-2 peptide having the A2G mutation): CL, Vc, Vt and Q. The same pharmacokinetic parameters were also measured for GLP-2 peptibodies A, B, E, J, K, L, M, O and P. The data is shown in Table 5. Male Sprague-Dawley rats (3 animals per group) were injected subcutaneously into the intra-scapular region of the animal. A singles dose of test article was injected at a dose level of 1 mg/ml. The test articles were formulated in PBS pH 7.4 at a concentration of Blood samples were taken 0.083, 0.167, 0.33, 0.5, 1, 2, 6, 24, 48, 72, 120, 168, 240, and 336 hours post dose. Blood samples were collected into heparinized tubes and centrifuged for 5 minutes at 2000 xg within 10 minutes of collection. 100 μL of plasma were transferred to a 1.51 ml Eppendorf tube containing 2 μL of 50 mM PMSF. After mixing the plasma samples were frozen at −80° C. until analysis. Meso Scale Discovery (MSD) ELISA was undertaken to assay for the concentration of the GLP-2 peptibodies.
A sandwich immunoassay was developed using either an anti-Human IgG1 Fc antibody or an anti-human albumin antibody for capture of the peptibody and a sulfotag labeled anti GLP-2 antibody for detection.

Data set [4] is described as follows: Rat pharmacokinetics, intravenous dosing. It counts as in vivo, Sprague-Dawley rats. Particulars: single dose 1 mg/ml. On the procedure:
as §2, with “4.” for “5.”, “intravenously either via a jugular vein or tail vein catheter.” for “subcutaneously into the intra-scapular region of the animal.”, “1.5” for “1.51”, “mixing,” for “mixing”, “analysis.” for “analysis. Meso Scale Discovery (MSD) ELISA was undertaken to assay for the concentration of the GLP-2 peptibodies.”

Data set [5] deals with T1, human GLP-2R (Homo sapiens, UniProt O95838).
T1 construct: host or cells: CHO-K1
T1 sequence (O95838 1-553): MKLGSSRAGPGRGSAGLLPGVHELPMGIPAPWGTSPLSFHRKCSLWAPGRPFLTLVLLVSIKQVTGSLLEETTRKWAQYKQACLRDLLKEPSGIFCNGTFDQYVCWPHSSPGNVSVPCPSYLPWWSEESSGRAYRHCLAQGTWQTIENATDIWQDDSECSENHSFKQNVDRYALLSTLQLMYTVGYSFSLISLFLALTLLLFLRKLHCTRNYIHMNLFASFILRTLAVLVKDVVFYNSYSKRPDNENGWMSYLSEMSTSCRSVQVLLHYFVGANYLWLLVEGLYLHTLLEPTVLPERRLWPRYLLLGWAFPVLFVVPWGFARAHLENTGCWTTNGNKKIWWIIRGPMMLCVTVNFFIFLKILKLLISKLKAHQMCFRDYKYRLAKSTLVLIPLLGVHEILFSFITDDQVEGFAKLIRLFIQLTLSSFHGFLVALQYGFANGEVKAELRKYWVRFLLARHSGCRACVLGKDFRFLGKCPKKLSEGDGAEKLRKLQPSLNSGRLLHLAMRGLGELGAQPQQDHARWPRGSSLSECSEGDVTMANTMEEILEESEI
Briefly: cAMP Hunter eXpress GLP2R CHO-K1 GPCR assay. It counts as cell-based. Particulars: of the in vitro activity of GLP-2[A2G]. As for the experimental part:
The cAMP Hunter™ assay is based on enzyme fragment complementation (EFC). In EFC assay, the enzyme donor is fused to cAMP. Increased intracellular cAMP due to GLP2R activation competes with ED-cAMP for antibody. Unbound ED-cAMP complements the enzyme acceptor to form active beta galactosidase, which subsequently produces a luminescent signal.
The CHO-K1 cell line used is overexpressing human GLP-2R (Genbank accession number NM004246.1). […] Their activities were assayed via measurement of the concentration of cAMP in the media.

Results on 2 molecules are retold here after patent US20230031280A1, “GLP-2 FUSION POLYPEPTIDES AND USES FOR TREATING AND PREVENTING GASTROINTESTINAL CONDITIONS” (SHIRE-NPS PHARMACEUTICALS, INC., priority 2017, published 2023).

“And” between values parts separate entries of the source, which are not always exact repeats. Equal entries are not always repeated.

B1: GLP-2 peptibody J: GLP-2[A2G]-long GAP/Gly/Ala linker-IgG1 Fc (LALA); SEQ ID NO: 19 (protein, listed as Homo sapiens)
chain: HGDGSFSDEMNTILDNLAARDFINWLIQTKITDGAPGGGGGAAAAAGGGGGGAPGGGGGAAAAAGGGGGGAPGGGGGAAAAAGGGGGGAP[letters of human IgG1 Fc with changes left out]
As for B1, the “SEC-MALS Zenix C-150 main peak” value in data set [1] was 98% main peak, 168,400 g/mol. In data set [2], the “NanoDSF melting temperature 1” value is 1 = 68.1 °C and the “NanoDSF melting temperature 2” value is 2 = 82.0 °C. In data set [3], this molecule came in with a CL of 8.12 mL/h/kg, a Q of 0.012 mL/h/kg, a Vc of 0.193 L/kg and a Vt of 0.0995 L/kg. For the same molecule, the ka entry in data set [3] is “J (0.93 ka/day,”. In data set [4], this molecule returned a CL of 2.41 mL/h/kg, a Q of 0.65 mL/h/kg, a Vc of 0.0376 L/kg and a Vt of 0.022 L/kg.

B2: GLP-2 peptibody E: GLP-2[A2G]-linker-IgG1 Fc (LALA); SEQ ID NO: 16 (protein, listed as Homo sapiens)
chain: HGDGSFSDEMNTILDNLAARDFINWLIQTKITDGGGGGGSGGGGSGGGGS[letters of human IgG1 Fc with changes left out]
In the case of B2, in data set [2], the “NanoDSF melting temperature 1” value was 1 = 67.5 °C and the “NanoDSF melting temperature 2” value was 2 = 80 °C. In addition, in data set [3], the CL stood at 5.04 mL/h/kg, the Vc turned out to be 0.205 L/kg and the ka result is recorded as “E (0.63 ka/day,”. Besides, the “in vitro activity relative to GLP-2[A2G]” value in data set [5] was 24% and 18%. In data set [4], this molecule came in with a CL of 3 mL/h/kg, a Q of 2.87 mL/h/kg, a Vc of 0.021 L/kg and a Vt of 0.041 L/kg.
